Measurements from PubChem BioAssay AID1671194 (National Center for Advancing Translational Sciences (NCATS), 2021).
Out of some 140,000 compounds screened, about 240 (0.17%) were called active. Inconclusive results, whose numbers are uncertain, are shown with a selection of clear calls. Calls come from the whole dose curve; as a rule, active = well fitted inhibition curve with a large enough effect; inconclusive = small, poorly fitted or top-dose-only effect; inactive = no such curve, though single readings can be large or run the other way. Potencies beside an inconclusive call are fits to weak or partial responses and may not hold up.

assay: Primary qHTS assay for inhibitors of alpha-synuclein gene (SNCA) expression; settings: HEK-293 SNCA-luciferase knock-in, luminescence, 24 h; series mostly up to 57.2 µM; note: nearly all actives have a fitted effect of over 45% in size
Potency is the fitted concentration of half-maximal effect; tags give direction and shape of the fitted curve.

Potency, inactive:
O=C(NCc1ccccc1)C1CCCN1C(=O)c1cccc(-c2ccccn2)c1 (stereo unspecified)
C[C@H]1[C@@H]2[C@@H](O)[C@H]([C@H](C)C(=O)N3CCCC3)CC[C@@]2(C)CC[C@@H]1NC(=O)c1cccc(F)c1
O=C(N[C@H]1CCN2C(=O)c3cc(-c4ccc(F)cc4F)ccc3NC(=O)[C@H]12)C1CCCC1
O=C(CC1COCCN1)NCc1ccc(N2CCCC2=O)cc1 (stereo unspecified)
COC1CCN(CC2CCCCCN2C(=O)Nc2ccc3c(c2)OCCO3)CC1 (stereo unspecified)
O=C(Nc1ccc2ncnc(N3CCCC3)c2c1)c1cccc(Br)c1
CC(=O)N1CCN(C(=O)C2CCc3nnc(CN[S+](=O)([O-])c4ccccc4Cl)n32)CC1 (stereo unspecified)
Cc1ccsc1C(=O)NC1CCc2nn(CC3CC3)c(=O)n2CC1 (stereo unspecified)
COCc1noc([C@@H]2CC(F)(F)CN2C(=O)c2ccc(C#N)cc2)n1
O=C(CSc1nc2ccncc2[nH]1)Nc1ccccc1C(F)(F)F
O=C(NCC1CC1)C1CCN(C(=O)c2ccc(-c3cncnc3)cc2)CC1
Clc1cccc(-c2cnc([C@@H]3COCCN3Cc3cnc[nH]3)[nH]2)c1
COc1ccc(Cl)cc1C(=O)N1CCc2nc3cc(-c4ccccc4)[nH]n3c(=O)c2C1
CC(C)c1nc2c(c(-c3ccc(O)cc3)n1)CCN(Cc1ccc(C(F)(F)F)cc1)CC2
CC1(NC(=O)C2CC2)CN(Cc2nc(-c3ccccc3OCc3ccccc3)cs2)C1
CCOc1ccccc1NC(=O)Cn1ccn2nc3c(c2c1=O)CCCC3
COc1ccc(S(=O)(=O)NCCNc2ncnc3c2c(C)nn3C)cc1
Cc1ccc(C)c(N2CCN(c3nc4c(S(=O)(=O)c5ccccc5)nnn4c4ccc(Cl)cc34)CC2)c1
O=C(NCc1cccc(F)c1)[C@@H]1CCCN1c1nccc(Nc2ccccc2Cl)n1
CC1=C(C(=O)Nc2cccc(C(F)(F)F)c2)C(c2ccccc2)n2ncnc2N1 (stereo unspecified)
CCCc1noc(-c2ccn3c(CNC(=O)c4ccc(C)c(F)c4)nnc3c2)n1
O=C1NC(=O)C(c2ccccn2)(C2CCN(C(=O)Cn3cnnn3)CC2)N1 (stereo unspecified)
CCc1ccc(CNC(=O)c2nnn3cc(C)[nH]c(=O)c23)cc1
Cc1ccccc1-c1cnc2[nH]cc(CC(=O)Nc3cccnc3)c2c1
CN1Cc2ccc(NCc3ccccc3)nc2C(C)(C(=O)NCc2cccs2)C1 (stereo unspecified)

Potency, inconclusive:
COc1ccc(-c2noc([C@@H]3Cc4nc[nH]c4CN3C(=O)c3ccc(F)cc3)n2)cc1 3.16 µM [inhibitor, partial curve, poor fit]
CCn1ncc(NC(=O)Cn2ncc3cc(-c4cccc(F)c4F)ccc32)n1 39.8 µM [inhibitor, partial curve, poor fit]
CN(C)CCNC(=O)c1nc2nc(-c3ccccc3)c(-c3cccc(Cl)c3)cc2n1C 56.2 µM [inhibitor, single point]
CC(C)Cn1cc(C(=O)N2CCN(c3cccc(Cl)c3)CC2)c2c3ccccc3n(C)c2c1=O 35.5 µM [inhibitor, single point]
Cc1ccccc1-c1cccc(CN2CCOC(CCN)C2)c1 (stereo unspecified) 39.8 µM [inhibitor, single point]
COc1ccc(Nc2ccnc(N3CCC(N[S+](=O)([O-])c4cccc(C(F)(F)F)c4)CC3)n2)cc1 39.8 µM [inhibitor, single point]
CCCNC(=O)NC[C@@H]1C=C(C)[C@H](Cc2nc3ccccc3[nH]2)C[C@H]1C(C)C 28.2 µM [inhibitor, single point]
CCn1cc2nc(SCc3cc(C)ccc3C)n(Cc3ccc(OC)cc3)c(=O)c2n1 14.1 µM [inhibitor, partial curve, poor fit]
COCc1ccc(C(=O)N2CCc3c(ncnc3N3CCOCC3)C2)o1 8.91 µM [inhibitor, single point]
CCc1ccc(N(C)S(=O)(=O)c2ccc3[nH]cc(C(=O)NCC4CCCO4)c(=O)c3c2)cc1 (stereo unspecified) 39.8 µM [inhibitor, single point]
COc1ccc(-n2ccnc2CN2CCC(Cc3nncn3C)CC2)cc1 39.8 µM [inhibitor, single point]
Cc1ccc(CNC(=O)c2ccc(N3CC4CC(C3)[C@H]3CCCC(=O)N3C4)nc2)cc1 (stereo partly specified) 1.26 µM [inhibitor, partial curve, poor fit]
CNc1nc2c(s1)C(c1cccc(F)c1)CC(=O)N2 (stereo unspecified) 39.8 µM [inhibitor, single point]
CCOc1ccc(NC(=O)CN2C(=O)C3(SCC(=O)N3c3ccc(F)cc3)c3ccccc32)cc1 (stereo unspecified) 25.1 µM [inhibitor, single point]
COc1ccc(C)cc1NC(=O)CSc1nc(=O)n(Cc2ccccn2)c2c1CCC2 7.08 µM [inhibitor, single point]
Cc1cccc(NC(=O)Cn2c(=O)oc3cc(S(=O)(=O)NC4CCCC4)ccc32)c1 25.1 µM [inhibitor, single point]
Cc1cc(C)c(OCC(=O)N(Cc2cccc(F)c2)Cc2ccco2)c(C)c1 39.8 µM [inhibitor, single point]
CC1=C[C@@H](CNS(=O)(=O)c2ccccc2)[C@H](C(C)C)C[C@H]1Cc1nnc(-c2ccncc2)o1 39.8 µM [inhibitor, single point]
Cn1c(Cn2cccn2)nnc1C1CC(NC(=O)c2cnco2)C1 (stereo unspecified) 39.8 µM [inhibitor, single point]
COc1cc(SC)ccc1C(=O)N[C@H]1C[C@@](O)(C(=O)NCCC(N)=O)C[C@@H](O)[C@@H]1O 39.8 µM [inhibitor, single point]
CC1(C)CN(S(=O)(=O)N2CCCC2)CC1c1ccccc1 (stereo unspecified) 39.8 µM [inhibitor, single point]
COc1ccc(OC)c(NC(=O)Cn2c(N3CCc4ccccc4C3)nc(C)cc2=O)c1 39.8 µM [inhibitor, single point]
O=S(=O)(Nc1ccc(Cl)cc1)c1cccc(S(=O)(=O)c2ccc(Cl)c(Cl)c2)c1 7.94 µM [inhibitor, single point]
Cc1cc(Nc2ccc(F)cc2)nc(-n2nc(C)cc2C)n1 2 µM [inhibitor, partial curve, poor fit]
Cc1ccc(C)c(N2CCN(CCCNC(=O)Nc3ccc(Cl)cc3)CC2)c1 39.8 µM [inhibitor, single point]
O=C1C(OCC2CC2)C2(CCCCC2)N1C1CCNCC1 (stereo unspecified) 39.8 µM [inhibitor, single point]
Cc1ccc(CCNC(=O)c2ccc(NC(=O)N3CCSc4ccccc43)cc2)cc1 39.8 µM [inhibitor, single point]
CCc1ccc2c(c1)c(=O)c(S(=O)(=O)c1ccccc1)cn2CC(=O)Nc1ccc(OC)cc1 2.82 µM [inhibitor, partial curve, poor fit]
CC(Cn1cccn1)C(=O)N1CCc2onc(-c3ccc(F)c(F)c3)c2C1 (stereo unspecified) 44.7 µM [inhibitor, single point]
COc1ccc(NC(=O)Cn2c(=O)n(-c3ccc(C)c(C)c3)c(=O)c3c(C)c(C)sc32)cc1 1.41 µM [inhibitor, partial curve, poor fit]
O=C(Nc1nnc(SCc2cc(=O)n3cc(Cl)ccc3n2)s1)c1cccc(F)c1 39.8 µM [inhibitor, single point]
O=S(=O)(c1ccccc1)N1CCC[C@@]2(CCN(C(c3ccccc3)c3ccccc3)C2)C1 10 µM [inhibitor, partial curve]
O=C(NCc1ccc(C(F)(F)F)cc1)c1ccc2nnc(-c3ccc(C(F)(F)F)cc3)n2c1 39.8 µM [inhibitor, single point]
COc1ccc(-c2nn(-c3cccc(F)c3)c3c2cnc2cc(OC)c(OC)cc23)cc1 7.08 µM [inhibitor, single point]
COCCN1CC(CO)C2(CCN(C3CCC3)CC2)C1 (stereo unspecified) 39.8 µM [inhibitor, single point]
CC(C)CNC(=O)C1CCCN1Cc1ccc(-c2cncnc2)cc1 (stereo unspecified) 56.2 µM [inhibitor, single point]
c1cncc(CN2CCCCC2c2nc(CCOCC3CCOCC3)no2)c1 (stereo unspecified) 39.8 µM [inhibitor, single point]
Cn1c(=O)n(CCCc2ccccc2)c(=O)c2c1nc1n2CCN1c1ccc(F)cc1 25.1 µM [inhibitor, single point]
Cc1cccc(N(C)C(=O)Cn2cccc2-c2nc(-c3ccccc3)no2)c1 25.1 µM [inhibitor, partial curve, poor fit]
Cc1cc2c(N3CCC(NCc4noc(C5CCC5)n4)CC3)ncnc2s1 4.47 µM [inhibitor, partial curve, poor fit]
COC(=O)c1c(C)nn(-c2ccc(F)cc2)c1-n1cccc1 39.8 µM [inhibitor, single point]
